According to the supplement of paper PMC3334620:
Whole data set: some 33,000 sequences, median “E-score (-0.5 to 0.5)” near -0.056, cut for the highest 2% near 0.38. The list shows a part of the results.

The sequences below were run against Stb4 (UniProt P50104) (assay: PBM E-score (8-mer binding enrichment) (E-score (-0.5 to 0.5)); higher = stronger / more preferred TF binding; most listed sequences are background and not binding sites). Conditions: protein concentration: 200 nM; construct: GST-DNA-binding domain.
Procedure, shortened: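 Universal all-10-mer Agilent arrays, double-stranded by primer extension on fresh or once-stripped slides, were probed with about 100-200 nM GST-tagged yeast transcription factors made by PURExpress. Fluorescent anti-GST detected bound protein, and masliner normalised the scans. E-scores from the Universal PBM Analysis Suite were given to each ungapped eight-base word pooled with its reverse complement.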

| Sequence | PBM E-score |
| --- | --- |
| CAGAATCA | -0.184 |
| AACTATAG | -0.0647 |
| CTCGACCA | -0.276 |
| AAACGGAT | 0.338 |
| GCACTTAA | 0.0926 |
| GCCGAATA | 0.427 |
| ACCTGACT | 0.00577 |
| CCGTCTAC | 0.101 |
| CTTTCAAA | 0.0627 |
| ATTGCTCG | 0.189 |
| CCGAGGCA | 0.396 |
| CACGCCTC | -0.194 |
| ATTGGTGG | -0.101 |
| ACGTACAT | 0.00122 |
| GTCATAGA | -0.0716 |
| CCGTGAAG | 0.0142 |
| GTTCTTAA | 0.0144 |
| CTTTCTGC | 0.0267 |
| CTTAATCC | 0.256 |
| CATCGGTA | 0.345 |
| GGGGTGAA | -0.124 |
| GCAGTCCC | -0.024 |

| Sequence | PBM E-score |
| --- | --- |
| CGGACAGC | 0.146 |
| CCGAGAGA | 0.373 |
| AACTCATA | 0.148 |
| AGTTATAT | -0.0217 |
| ACGCGCGA | -0.0833 |
| GTACGAAA | -0.152 |
| GAACTATA | 0.0846 |
| ACTCTAGG | -0.212 |
| ACTCACCT | -0.281 |
| AAAGAGCA | -0.0662 |
| GTTACCAA | -0.0844 |
| ACAGAGTC | -0.0818 |
| GAGTTTCC | 0.204 |
| GTTGCTCA | -0.212 |
| CGGGACAG | 0.274 |
| AGCGCCAA | -0.178 |
| AAAAACCT | 0.0896 |
| CTGCCCGA | 0.227 |
| AGTATTAG | -0.00647 |
| AAATCGGC | 0.313 |
| AGCAACCA | -0.153 |
| CGGTGACC | -0.0113 |

| Sequence | PBM E-score |
| --- | --- |
| AGGGCCTG | -0.275 |
| GAACATTA | 0.0192 |
| ATTGCCTG | -0.206 |
| AACTGATG | -0.171 |
| CACGGATG | 0.338 |
| CCATCACA | -0.197 |
| AAGCGCCC | 0.101 |
| AAAGGGTA | -0.033 |
| CGAGTCTA | -0.0263 |
| TCAAATCA | -0.36 |
| CAAGGGGA | -0.248 |
| AAAGGAAA | 0.0679 |
| ATGTAACA | -0.0218 |
| CTCGGCGA | 0.397 |
| GTGTTTCA | 0.00798 |
| GCTATAAC | 0.019 |
| AGGAAGGC | -0.178 |
| GCCTGAAC | -0.201 |
| CCCTACGC | -0.0928 |
| CCCCACCC | 0.242 |
| CTTCAGAA | 0.0359 |
| GGGCCACC | 0.108 |

| Sequence | PBM E-score |
| --- | --- |
| CAATGTCC | 0.00172 |
| CCATATTC | -0.0336 |
| ATCAGCCC | -0.0686 |
| ACCTTCGG | 0.404 |
| GTGCCAGA | -0.31 |
| GGTATGCA | -0.00611 |
| CGGTATAC | 0.203 |
| AGAGGCCT | -0.147 |
| ATCGATGG | -0.0949 |
| AAGGTTGC | -0.168 |
| GGCTCGAC | -0.106 |
| GCCTCACC | -0.0746 |
| CGCTTGGA | -0.0767 |
| CAGTATGC | -0.0123 |
| TATCTCGA | -0.244 |
| AGTGTAAA | -0.151 |
| AAATCTAA | -0.0554 |
| AGTTTTGA | -0.0084 |
| ACTCCAAC | -0.11 |
| GATCCTCC | 0.101 |
